Assay results published in PubChem BioAssay AID1347120 (National Center for Advancing Translational Sciences (NCATS), 2019).
In all, about 390,000 compounds went through this assay and about 930 (0.24%) were called active. This list was built around the results that the source calls inconclusive (neither active nor inactive); the mix of calls is not that of the screen. Calls come from the whole dose curve; as a rule, active = well fitted activation curve with a large enough effect; inconclusive = small, poorly fitted or top-dose-only effect; inactive = no such curve, though single readings can be large or run the other way. A potency beside an inconclusive call is a rough fit, not a confirmed value.

experiment: qHTS for Suppressors of FUS Proteinopathy: Primary screen using FUS-linked yeast assay; note: nearly all actives have a fitted effect of over 55% in size;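 for growth rescue (activation): plate controls were DMSO vehicle for no effect and reference control for full effect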; conditions: S. cerevisiae FUS-expressing, OD600, 24 h; Potency: growth rescue; growth rescue (activation): at 76.6 µM (top of the series)
Procedure, shortened: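 Yeast expressing FUS under galactose induction, OD 0.005 in 2% galactose medium; compounds in a dilution series, 24 h at 30C. Growth rescue by absorbance at 600 nm; CP55940 positive control, DMSO negative.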
Potency is the fitted concentration of half-maximal effect; tags give direction and shape of the fitted curve.

Question: Which Potency does the source give for `COc1ccc(S[C@]2(C(=O)N3CCN(c4ncccn4)CC3)CC(=O)N(c3ccc(C#N)cc3)[C@@H]2c2ccc(OC)cc2)cc1` here?
Answer: Its Potency is inconclusive: 11.2 µM [activator, partial curve, poor fit].

Question: Which “growth rescue (activation)” value does the source give for `CC1OC(OC2C(CO)OC(OCC3OC(OC(=O)[C@@]45CCC(C)(C)C[C@@H]4C4=CC[C@@H]6[C@@]7(C)CCC(OC8OCC(O)C(O)C8OC8OC(C)C(O)C(O)C8O)[C@@](C)(CO)C7CC[C@@]6(C)[C@]4(C)CC5)C(O)C(O)C3O)C(O)C2O)C(O)C(O)C1O` (some centres not stated) here?
Answer: Its value is inactive: 12.2%.

Question: With `O=C(c1cccc(F)c1F)N(Cc1ccccn1)CC1CCCO1` (configuration not stated) as the molecule, how does the “growth rescue (activation)” value read?
Answer: Its value is inactive: -5.38%.

Question: Which Potency does the source give for `O=c1c2ccccc2oc2cc(C#CC3(O)CCCCC3)ccc12` here?
Answer: Its Potency is inconclusive: 31.6 µM [activator, single point].

Question: For `COC(=O)[C@@]12CCCN1[C@H](c1ccc(-c3ccc(Cl)c(Cl)c3)c(OC)c1)[C@H]1C(=O)N(C)C(=O)[C@H]12`, which Potency is on record?
Answer: The Potency was active: 35.5 µM.

Question: For `COc1cccc(OCc2nc3ccccc3n2CCOc2ccccc2C)c1`, which Potency is on record?
Answer: The Potency was inconclusive: 35.5 µM [activator, partial curve, poor fit].

Question: With `CC(OC(=O)/C=C/c1ccccc1)C(=O)Nc1ccc2c(c1)OCCO2` (configuration not stated) as the molecule, how does the “growth rescue (activation)” value read?
Answer: The value was inactive: -20.9%.

Question: With `CCC(Oc1ccccc1)C(=O)Nc1ncc([N+](=O)[O-])s1` (configuration not stated) as the molecule, how does the “growth rescue (activation)” value read?
Answer: The value was inactive: -20.4%.

Question: Which Potency does the source give for `Cc1cc(C)cc(NC(=O)CSc2oc(-c3cccs3)nc2S(=O)(=O)c2ccccc2)c1` here?
Answer: Its Potency is inconclusive: 44.7 µM [activator, single point].

Question: For `Cc1ccc(C(=O)N(C)CCOc2ccccc2)cc1S(=O)(=O)N1CCCCC1`, which Potency is on record?
Answer: Its Potency is inconclusive: 22.4 µM [activator, partial curve, poor fit].

Question: For `Cn1c(N)c(C(=O)COC(=O)CCOc2ccc(C(C)(C)C)cc2)c(=O)n(C)c1=O`, which Potency is on record?
Answer: The Potency was inconclusive: 50.1 µM [activator, single point].

Question: For `C[C@@H]1CN([C@@H](C)CO)S(=O)(=O)c2ccc(Br)cc2O[C@H]1CN(C)Cc1ccc(-c2ccccc2)cc1`, which Potency is on record?
Answer: The Potency was inconclusive: 20 µM [activator, single point].

Question: With `Cc1ccc(S(=O)(=O)Nc2ccc(Nc3nccn4c(-c5cccc(OC(F)(F)F)c5)cnc34)cc2)cc1` as the molecule, how does the Potency read?
Answer: Its Potency is inconclusive: 35.5 µM [activator, single point].

Question: Which Potency does the source give for `Cc1cc(C)n(CC(O)CN2c3ccccc3Sc3ccccc32)n1` (configuration not stated) here?
Answer: Its Potency is inconclusive: 50.1 µM [activator, single point].

Question: For `CC1=NOC(=O)/C1=C\c1ccc(-c2ccccc2Br)o1`, which “growth rescue (activation)” value is on record?
Answer: Its value is inactive: -9.91%.

Question: With `COc1ccc(C2(c3ccc(OC(C)=O)cc3OC(C)=O)CC(c3ccccc3)NC(=S)N2)cc1` (configuration not stated) as the molecule, how does the Potency read?
Answer: The Potency was inconclusive: 35.5 µM [activator, single point].

Question: With `O=S1(=O)CC2c3ccccc3CN2CN1C1CCCC1` (configuration not stated) as the molecule, how does the “growth rescue (activation)” value read?
Answer: The value was inactive: 14.5%.

Question: Which Potency does the source give for `CCOC(=O)c1cc(S(=O)(=O)N2CCN(c3cc(C)ccc3C)CC2)[nH]n1` here?
Answer: The Potency was inconclusive: 50.1 µM [activator, single point].

Question: For `CC(=O)Nc1cccc(Oc2ncnc3scc(-c4ccc(C)cc4)c23)c1`, which Potency is on record?
Answer: The Potency was inconclusive: 35.5 µM [activator, single point].

Question: Which Potency does the source give for `CCCCN(C(=O)CSc1cc(C)c2ccc(OC)cc2n1)c1c(N)n(Cc2ccccc2)c(=O)[nH]c1=O` here?
Answer: The Potency was inconclusive: 50.1 µM [activator, single point].

Question: For `COC(=O)c1sc(NC(=O)c2cc3nc(-c4ccc(Br)cc4)cc(C(F)(F)F)n3n2)c(C(=O)OC)c1C`, which Potency is on record?
Answer: Its Potency is inconclusive: 28.2 µM [activator, partial curve, poor fit].

Question: For `Cc1ccc(-c2ccc(=O)n(CC(=O)N3CCN(c4cccc(C)c4)C(C)C3)n2)cc1` (configuration not stated), which Potency is on record?
Answer: Its Potency is inconclusive: 35.5 µM [activator, single point].

Question: With `CCCCn1c(=O)c(C(=O)OCC)c(O)c2ccccc21` as the molecule, how does the Potency read?
Answer: Its Potency is inconclusive: 56.2 µM [activator, partial curve, poor fit].

Question: With `COc1cccc(OC(C)c2ccnc3nc(/N=C/N(C)C)nn23)c1` (configuration not stated) as the molecule, how does the Potency read?
Answer: Its Potency is inconclusive: 11.2 µM [activator, single point].

Question: Which Potency does the source give for `CC1(C)S[C@@H]2[C@H](NC(=O)COc3ccccc3)C(=O)N2C1C(=O)OCc1ccccc1` (some centres not stated) here?
Answer: Its Potency is inconclusive: 25.1 µM [activator, single point].

Question: Which Potency does the source give for `C[C@@H]1CN([C@H](C)CO)C(=O)c2cc(NC(=O)Nc3ccc(C(F)(F)F)cc3)ccc2O[C@H]1CN(C)Cc1ccc(Cl)c(Cl)c1` here?
Answer: The Potency was inconclusive: 28.2 µM [activator, single point].

Question: With `O=C1CCCC2=C1C1(CCCC1)N=C(Nc1nc3ccccc3s1)N2` as the molecule, how does the “growth rescue (activation)” value read?
Answer: Its value is inactive: -0.812%.

Question: Which Potency does the source give for `COc1cccc(CN(C)C(=O)c2cccc(NC(=O)CC3SC(N4CCCCC4)=NC3=O)c2)c1OC` (configuration not stated) here?
Answer: The Potency was inconclusive: 12.6 µM [activator, partial curve].

Question: For `CCOc1ccc(-c2cn3c(n2)sc2cc(C(=O)NCCCc4ccccc4)ccc23)cc1`, which “growth rescue (activation)” value is on record?
Answer: Its value is inactive: -10.7%.

Question: With `Cc1nc2nc(SCc3ccc(F)cc3Cl)nn2c(C)c1Cc1ccccc1` as the molecule, how does the “growth rescue (activation)” value read?
Answer: Its value is inactive: 30.6%.

Question: For `COc1cc(/C=C(\C#N)C(=O)Nc2cccc(C(=O)O)c2)ccc1OCc1ccc(Cl)cc1`, which Potency is on record?
Answer: The Potency was inconclusive: 35.5 µM [activator, single point].

Question: For `CCC1CN(C(=O)N2CCC(C(=O)NCCc3ccccc3C)CC2)c2ccccc2O1` (configuration not stated), which Potency is on record?
Answer: Its Potency is inconclusive: 22.4 µM [activator, single point].

Question: For `O=C(c1[nH]c2ccccc2c1Sc1ccc(Cl)cc1)N1CCCCC1`, which Potency is on record?
Answer: The Potency was inconclusive: 31.6 µM [activator, single point].

Question: Which “growth rescue (activation)” value does the source give for `CCOc1ccccc1CNCc1c(C(=O)O)c(C)n(Cc2ccc(Cl)cc2)c1C` here?
Answer: Its value is inactive: 17.4%.

Question: Which “growth rescue (activation)” value does the source give for `O=C(Nc1nnc(C2CC2)s1)C1COc2ccccc2O1` (configuration not stated) here?
Answer: The value was inactive: 16.8%.

Question: For `N#Cc1cnc(SCC(=O)NNC(=O)COc2cccc3ccccc23)nc1N`, which “growth rescue (activation)” value is on record?
Answer: Its value is inactive: 17%.

Question: Which Potency does the source give for `COc1ccc(/C=C/C(=O)NC(=S)NNC(=O)c2cccnc2)cc1OC` here?
Answer: The Potency was inconclusive: 44.7 µM [activator, partial curve, poor fit].

Question: With `COc1ccc(C(=O)Nc2cc(C(C)C)c(O)c(S(=O)(=O)c3ccc(Cl)cc3)c2C)cc1` as the molecule, how does the Potency read?
Answer: The Potency was inconclusive: 11.2 µM [activator, partial curve].

Question: With `O=C(CCc1nc(-c2ccccc2)no1)NCCc1ccccc1` as the molecule, how does the Potency read?
Answer: Its Potency is inconclusive: 11.2 µM [activator, single point].

Question: Which Potency does the source give for `COc1ccc(-n2c(Cc3cccn3C)nnc2SCC(=O)Nc2ccc(F)cc2)cc1` here?
Answer: Its Potency is inconclusive: 12.6 µM [activator, partial curve].

Question: Which “growth rescue (activation)” value does the source give for `CCc1cccc(NC(=O)CCCCCC2NC(=O)NC2C)c1` (configuration not stated) here?
Answer: The value was inactive: 6.88%.

Question: With `CN(CCc1ccccc1)C(=O)c1cccc(NC(=O)Cc2cccc(NC(=O)C3CCCN(C(=O)CCc4ccccc4)C3)c2)c1` (configuration not stated) as the molecule, how does the Potency read?
Answer: Its Potency is inconclusive: 14.1 µM [activator, partial curve, poor fit].

Question: For `COc1ccccc1CN1CCN(C(=O)c2cccc3ccccc23)CC1`, which “growth rescue (activation)” value is on record?
Answer: Its value is inactive: -18.5%.

Question: For `O=C(CC1SC(=Nc2ccccc2)N(CCc2c[nH]c3ccccc23)C1=O)Nc1ccccc1F` (configuration not stated), which Potency is on record?
Answer: Its Potency is inconclusive: 17.8 µM [activator, partial curve, poor fit].

Question: Which Potency does the source give for `CCN(CC)CCNC(=O)c1ccc2c(c1)NC(=O)C(CS(=O)(=O)Cc1cccc(Br)c1)N2` (configuration not stated) here?
Answer: The Potency was inconclusive: 28.2 µM [activator, single point].

Question: For `CCCOc1ccc(/C=C/C(=O)N2CCOCC2)cc1`, which Potency is on record?
Answer: The Potency was inconclusive: 31.6 µM [activator, partial curve, poor fit].

Question: For `CC(C)(C)OC(=O)C[C@H]1C/C=C\C[C@@H](CC(=O)N(CCO)Cc2ccccc2)C(=O)N[C@H](C(C)(C)C)COC1=O`, which Potency is on record?
Answer: Its Potency is inconclusive: 8.91 µM [activator, partial curve].

Question: With `Cc1ccc(C)c(Nc2ncnc3onc(C)c23)c1` as the molecule, how does the “growth rescue (activation)” value read?
Answer: The value was inactive: -19.6%.

Question: With `Nc1cccc(C(=O)Nc2ccccc2Cl)c1` as the molecule, how does the “growth rescue (activation)” value read?
Answer: Its value is inactive: 14.1%.

Question: Which Potency does the source give for `CC(C)(C)c1ccc(OCC(=O)O/N=C(\N)c2ccncc2)cc1` here?
Answer: Its Potency is inconclusive: 28.2 µM [activator, partial curve, poor fit].

Question: With `COc1cccc(-c2noc(-c3cccnc3)n2)c1` as the molecule, how does the “growth rescue (activation)” value read?
Answer: The value was inactive: 10.6%.

Question: For `COCc1cc(C)nc(OCC(=O)N/N=C/c2ccc(OC)c(OC)c2)c1C#N`, which “growth rescue (activation)” value is on record?
Answer: Its value is inactive: -2.4%.

Question: With `C/C(=C\C#N)n1nc(C)cc1N` as the molecule, how does the growth rescue (activation) read?
Answer: Its growth rescue (activation) is inconclusive: -52.3% [activator].

Question: Which Potency does the source give for `CCCCCCn1c(N(CC)CC)nc2c1c(=O)[nH]c(=O)n2C` here?
Answer: The Potency was inconclusive: 25.1 µM [activator, partial curve, poor fit].

Question: For `COc1ccc(N(C)S(=O)(=O)c2cccc(C(=O)Nc3ccc4c(c3)OCCO4)c2)cc1`, which Potency is on record?
Answer: The Potency was inconclusive: 50.1 µM [activator, single point].

Question: For `C[C@H](NC(=O)c1nc[nH]c1C(=O)N[C@@H](Cc1ccccc1)C(=O)OC(C)(C)C)C(=O)OCc1ccccc1`, which Potency is on record?
Answer: Its Potency is inconclusive: 11.2 µM [activator, partial curve].

Question: With `CC1CN(C(=O)CCC(=O)NCc2ccc(Cl)cc2)c2ccccc2S1` (configuration not stated) as the molecule, how does the Potency read?
Answer: Its Potency is inconclusive: 25.1 µM [activator, single point].

Question: Which Potency does the source give for `COc1cccc(-c2nc(SC)nc3sc(C(=O)NC(C)(C)C)c(N)c23)c1` here?
Answer: The Potency was inconclusive: 22.4 µM [activator, partial curve].

Question: For `CCS(=O)(=O)N1CCC(c2nc(-c3ccc(C(F)(F)F)cc3)no2)CC1`, which “growth rescue (activation)” value is on record?
Answer: The value was inactive: 18.1%.

Question: For `COc1ccccc1OC(=O)c1ccc(SC)cc1OC`, which growth rescue (activation) is on record?
Answer: The growth rescue (activation) was inconclusive: 88.4% [activator].

Question: Which “growth rescue (activation)” value does the source give for `CCOC(=O)N1CCN(C(=O)C[C@H]2C[C@@]3(C(=O)OC)C(=C[C@H](COCc4ccccc4)O[C@@H]3C)N(Cc3ccco3)C2=O)CC1` here?
Answer: The value was inactive: 42.1%.

Question: With `CC(C)C[C@H](NC(=O)c1nc[nH]c1C(=O)NCCCCCNC(=O)OC(C)(C)C)C(=O)OC(C)(C)C` as the molecule, how does the Potency read?
Answer: Its Potency is inconclusive: 14.1 µM [activator, partial curve, poor fit].
